# ± gives the standard deviation of the averaged measurements. Whole data set: some 33,000 sequences, median “E-score (dimensionless, -0.5 to 0.5)” near -0.049, cut for the highest 2% near 0.37. The list shows a part of the results.
# System: T1, PmTbr T-box DNA-binding domain (GST fusion)
# T1 sequence: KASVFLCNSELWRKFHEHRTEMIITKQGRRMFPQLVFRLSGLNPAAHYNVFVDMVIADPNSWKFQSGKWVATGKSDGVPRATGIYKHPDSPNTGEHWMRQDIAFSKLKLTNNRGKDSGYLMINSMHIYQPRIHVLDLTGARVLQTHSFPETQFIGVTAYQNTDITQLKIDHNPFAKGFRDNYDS
# Experiment: PBM E-score of 8-mer (E-score (dimensionless, -0.5 to 0.5)); Tbr is Tbrain of the sea star Patiria miniata (Pm) or the sea urchin Strongylocentrotus purpuratus (Sp); higher = stronger binding preference; most listed sequences are background and not binding sites
# Conditions: the construct has about 5 more residues each side
# Procedure, shortened: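 GST-fused Tbr T-box DNA-binding domains (the whole T-box plus about five flanking residues) were expressed in BL21 E. coli at 20 °C and purified by glutathione affinity chromatography. Universal Agilent oligonucleotide arrays were made double-stranded by primer extension, incubated with 200 nM protein in PBS (pH 7.5), then scanned and quantified. Every ungapped 8-mer was scored from probe intensities. The Universal PBM Analysis Suite gave each word an enrichment E-score, averaged over duplicate arrays.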
row,Sequence,PBM E-score of 8-mer
1,ATCGCTGA,0.0416 ± 0.057
2,ATGTGATG,0.338 ± 0.025
3,ATCAAAGC,-0.293 ± 0.0095
4,TAGCGAAA,0.0843 ± 0.097
5,TAGCTACA,-0.184 ± 0.076
6,ACAGCTGT,0.312 ± 0.0093
7,TCGGCCGA,0.059 ± 0.0033
8,AGCCCAGG,-0.302 ± 0.023
9,TCCAGACA,0.0343 ± 0.049
10,GACTTGTA,-0.144 ± 0.12
11,CCTCCTCA,0.123 ± 0.0097
12,AACTGAGT,-0.0725 ± 0.037
13,AATGGTAT,-0.0355 ± 0.096
14,AGACACGC,0.09356 ± 0.00023
15,GTAACTCA,0.0277 ± 0.031
16,GAGACGCC,-0.14242 ± 7.1e-06
17,ACACTGCG,0.276 ± 0.023
18,CAAACGGA,-0.0347 ± 0.041
19,AAGGAGGG,-0.0858 ± 0.011
20,CTACCTCC,-0.0456 ± 0.027
21,AAAGTGCA,0.0982 ± 0.0028
22,AAAAAGGC,0.0561 ± 0.038

row,Sequence,PBM E-score of 8-mer
1,ACCCATAC,-0.0348 ± 0.016
2,ACTGCCCT,-0.0758 ± 0.018
3,CGTGGCCC,-0.148 ± 0.091
4,AATCTCGA,-0.0492 ± 0.025
5,CGGATAAG,-0.0382 ± 0.032
6,GGGGTGCA,0.1329 ± 0.00018
7,CGACTGCG,-0.0704 ± 0.032
8,ACCATATA,-0.241 ± 0.095
9,ACCAAATG,-0.0173 ± 0.0011
10,CGAAACAA,0.00218 ± 0.014
11,ACCCTAGT,0.00685 ± 0.053
12,GTCATGAC,-0.0323 ± 0.014
13,AAGAGCGA,-0.169 ± 0.029
14,GAAACTCA,-0.0114 ± 0.018
15,GCAATCCA,-0.0287 ± 0.016
16,ATTTCGAC,0.13 ± 0.058
17,GGGCCCAC,-0.094 ± 0.051
18,ACCGCTCA,-0.084 ± 0.012
19,AATTTGAT,-0.152 ± 0.12
20,CGTCGCTC,-0.0135 ± 0.0094
21,CGGGAGTA,-0.149 ± 0.033
22,GCAACAGC,0.078 ± 0.014

row,Sequence,PBM E-score of 8-mer
1,ACTCGGAA,-0.122 ± 0.051
2,ACAACCGC,0.141 ± 0.013
3,TTCAGCAA,0.17 ± 0.04
4,CCCCAATC,-0.111 ± 0.0088
5,TATCGGCA,0.0555 ± 0.032
6,CACGCGGC,0.0479 ± 0.054
7,CTCTGTTC,0.00273 ± 0.033
8,CTAGAAAA,-0.0306 ± 0.063
9,CAATACTC,-0.0735 ± 0.01
10,ATGAGCTC,-0.104 ± 0.0054
11,CGATGGGC,-0.0763 ± 0.1
12,AAGGACAC,-0.0192 ± 0.027
13,ACTGTCGC,0.259 ± 0.056
14,GGTAAAAA,-0.0311 ± 0.073
15,GCTAAAGA,0.105 ± 0.017
16,TCTGATAA,0.0772 ± 0.036
17,TATCCAAA,-0.353 ± 0.065
18,GTCCTTTA,-0.182 ± 0.056
19,GGCGGGAC,0.0218 ± 0.01
20,ACCTCGTC,0.197 ± 0.019
21,CGCGCCAG,0.2 ± 0.049
22,GGCTTCGA,-0.094 ± 0.0067

row,Sequence,PBM E-score of 8-mer
1,CACAAAGA,-0.117 ± 0.05
2,ACGTAGAT,0.0235 ± 0.01
3,AGGACCAC,-0.253 ± 0.12
4,GATTCCAC,-0.12153 ± 0.00011
5,GGTGGAAA,0.0951 ± 0.013
6,GTGCCTCA,0.0613 ± 0.045
7,GGATAATA,-0.143 ± 0.061
8,GTCGCAAC,0.29 ± 0.005
9,CTAACATA,0.0161 ± 0.011
10,AAAGATTC,-0.087 ± 0.036
11,AAGGTGAC,0.426 ± 0.011
12,GGCACGGA,-0.03 ± 0.015
13,CTCTTGTA,-0.164 ± 0.038
14,CCTCTCTA,-0.0135 ± 0.031
15,GGGTACAC,-0.123 ± 0.036
16,GCGCGTGA,0.322 ± 0.0044
17,AAAACCAC,-0.07498 ± 0.00031
18,GACGCTTA,0.0625 ± 0.044
19,CTCCATAC,0.12 ± 0.032
20,ACACTAGG,0.12 ± 0.0022
21,GAAGCTCC,-0.342 ± 0.041
22,CATACAGC,-0.223 ± 0.032

row,Sequence,PBM E-score of 8-mer
1,CCCAAGCA,-0.201 ± 0.056
2,GCTCCAGC,-0.226 ± 0.028
3,GGGAGCAA,0.0626 ± 0.0095
4,AGTCGTAA,-0.149 ± 0.011
5,GCCACGGC,-0.03 ± 0.011
6,GCCGGAAA,-0.184 ± 0.032
7,CTAAGGAG,-0.108 ± 0.029
8,CCCGTATC,0.0267 ± 0.042
9,TAGTCACA,0.233 ± 0.013
10,GGTTGCAC,0.164 ± 0.017
11,GAGCCTCA,-0.138 ± 0.025
12,GAATCTAA,-0.0385 ± 0.054
13,CATCCTAC,-0.0397 ± 0.018
14,AGCCACTG,-0.118 ± 0.027
15,AAAGGAAT,-0.242 ± 0.034
16,AGCTGGCC,-0.191 ± 0.039
17,GATAGGGC,-0.0385 ± 0.05
18,GCGATTTA,0.247 ± 0.0081
19,CCCCCGAA,-0.3 ± 0.058
20,CTGGTTGC,0.106 ± 0.066
21,CAGTAGAC,-0.0988 ± 0.05
22,GAATTAAC,-0.0426 ± 0.067

# — the supplement of paper PMC4166925
